# Experimental data: the supplement of paper PMC8728848
# The other results are listed elsewhere or left out.
# B1: GS13455A-bfa-343-25-343 (Bacteroides fragilis) (protein)
# chain: KDEIQIVDQDTSWQMDNKYIEEDIREQLGIDPFTDLVYLGYYGNPYTQLEAINDLVNTTLVGKNELSFKVKVTKPYKEDIKVNLMKEDKLVTDFPEMAEGIPLFPSENCTFEGGVLKAGELETTVKLTLKDVEKLNNLSGYVMAIKLTMEGSHEHLAIARTRSSYFVKLNLSIRLDNIDSSNKKIEGKGFNKEISFKSDIRPDKLGSLNDGNFTANNWYTSNANNYLTIILPEKQSLKGFRLDTNTSPSGSYMLKSCRVMVETPDGNWVNHGVFDRKSMDGIAYISFKKPVECTKVRFENMMAFNGRFSVDVNEVTAFR
# Columns and labels:
# Assay in all cases: glycan array binding signal (z-score within array); higher = stronger binding
# Settings in all cases: glycan notation: IUPAC condensed, linker removed
# [1] = biological target: Gal(b1-4)GlcNAc(b1-3)Gal(b1-4)Glc
# In short: (§1)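 Columns mapping to the same glycan were averaged after glycan names were converted to IUPAC-condensed notation. The data come from 3228 arrays in the Consortium for Functional Glycomics database, limited to those with an available protein sequence. Binding is reported as a within-array Z-score averaged across arrays of one protein sequence and across linkers.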
# [2] = biological target: Gal(b1-4)GlcNAc(b1-3)Gal(b1-4)GlcNAc
# In short: as §1
# [3] = biological target: Gal(b1-4)GlcNAc(b1-3)Gal(b1-4)GlcNAc(b1-2)Man(a1-3)[Gal(b1-4)GlcNAc(b1-3)Gal(b1-4)GlcNAc(b1-2)Man(a1-6)]Man(b1-4)GlcNAc(b1-4)GlcNAc
# In short: as §1
# [4] = biological target: Gal(b1-4)GlcNAc(b1-3)Gal(b1-4)GlcNAc(b1-2)Man(a1-3)[Gal(b1-4)GlcNAc(b1-3)Gal(b1-4)GlcNAc(b1-2)Man(a1-6)]Man(b1-4)GlcNAc(b1-4)[Fuc(a1-6)]GlcNAc
# In short: as §1
# [5] = biological target: Gal(b1-4)GlcNAc(b1-3)Gal(b1-4)GlcNAc(b1-2)[Gal(b1-4)GlcNAc(b1-3)Gal(b1-4)GlcNAc(b1-6)]Man(a1-6)[Gal(b1-4)GlcNAc(b1-3)Gal(b1-4)GlcNAc(b1-2)Man(a1-3)]Man(b1-4)GlcNAc(b1-4)GlcNAc
# In short: as §1
# [6] = biological target: Gal(b1-4)GlcNAc(b1-3)Gal(b1-4)GlcNAc(b1-2)[Gal(b1-4)GlcNAc(b1-3)Gal(b1-4)GlcNAc(b1-6)]Man(a1-6)[Gal(b1-4)GlcNAc(b1-3)Gal(b1-4)GlcNAc(b1-2)Man(a1-3)]Man(b1-4)GlcNAc(b1-4)[Fuc(a1-6)]GlcNAc
# In short: as §1
# [7] = biological target: Gal(b1-4)GlcNAc(b1-3)Gal(b1-4)GlcNAc(b1-3)Gal(b1-4)GlcNAc
# In short: as §1
# [8] = biological target: Gal(b1-4)GlcNAc(b1-3)Gal(b1-4)GlcNAc(b1-3)Gal(b1-4)GlcNAc(b1-2)Man(a1-3)[Gal(b1-4)GlcNAc(b1-3)Gal(b1-4)GlcNAc(b1-3)Gal(b1-4)GlcNAc(b1-2)Man(a1-6)]Man(b1-4)GlcNAc(b1-4)GlcNAc
# In short: as §1
# [9] = biological target: Gal(b1-4)GlcNAc(b1-3)Gal(b1-4)GlcNAc(b1-3)Gal(b1-4)GlcNAc(b1-2)Man(a1-3)[Gal(b1-4)GlcNAc(b1-3)Gal(b1-4)GlcNAc(b1-3)Gal(b1-4)GlcNAc(b1-2)Man(a1-6)]Man(b1-4)GlcNAc(b1-4)[Fuc(a1-6)]GlcNAc
# In short: as §1
# [10] = biological target: Gal(b1-4)GlcNAc(b1-3)Gal(b1-4)GlcNAc(b1-3)Gal(b1-4)GlcNAc(b1-2)[Gal(b1-4)GlcNAc(b1-3)Gal(b1-4)GlcNAc(b1-3)Gal(b1-4)GlcNAc(b1-6)]Man(a1-6)[Gal(b1-4)GlcNAc(b1-3)Gal(b1-4)GlcNAc(b1-3)Gal(b1-4)GlcNAc(b1-2)Man(a1-3)]Man(b1-4)GlcNAc(b1-4)[Fuc(a1-6)]GlcNAc
# In short: as §1
# [11] = biological target: Gal(b1-4)GlcNAc(b1-3)Gal(b1-4)GlcNAc(b1-3)Gal(b1-4)GlcNAc(b1-3)Gal(b1-4)GlcNAc(b1-2)Man(a1-3)[Gal(b1-4)GlcNAc(b1-3)Gal(b1-4)GlcNAc(b1-3)Gal(b1-4)GlcNAc(b1-3)Gal(b1-4)GlcNAc(b1-2)Man(a1-6)]Man(b1-4)GlcNAc(b1-4)GlcNAc
# In short: as §1
# [12] = biological target: Gal(b1-4)GlcNAc(b1-3)Gal(b1-4)GlcNAc(b1-3)Gal(b1-4)GlcNAc(b1-3)Gal(b1-4)GlcNAc(b1-2)Man(a1-3)[Gal(b1-4)GlcNAc(b1-3)Gal(b1-4)GlcNAc(b1-3)Gal(b1-4)GlcNAc(b1-3)Gal(b1-4)GlcNAc(b1-2)Man(a1-6)]Man(b1-4)GlcNAc(b1-4)[Fuc(a1-6)]GlcNAc
# In short: as §1
# [13] = biological target: Gal(b1-4)GlcNAc(b1-3)Gal(b1-4)GlcNAc(b1-3)Gal(b1-4)GlcNAc(b1-3)Gal(b1-4)GlcNAc(b1-2)[Gal(b1-4)GlcNAc(b1-3)Gal(b1-4)GlcNAc(b1-3)Gal(b1-4)GlcNAc(b1-3)Gal(b1-4)GlcNAc(b1-6)]Man(a1-6)[Gal(b1-4)GlcNAc(b1-3)Gal(b1-4)GlcNAc(b1-3)Gal(b1-4)GlcNAc(b1-3)Gal(b1-4)GlcNAc(b1-2)Man(a1-3)]Man(b1-4)GlcNAc(b1-4)[Fuc(a1-6)]GlcNAc
# In short: as §1
# [14] = biological target: Gal(b1-4)GlcNAc(b1-3)Gal(b1-4)GlcNAc(b1-3)Gal(b1-4)GlcNAc(b1-3)Gal(b1-4)GlcNAc(b1-3)Gal(b1-4)GlcNAc(b1-2)Man(a1-3)[Gal(b1-4)GlcNAc(b1-3)Gal(b1-4)GlcNAc(b1-3)Gal(b1-4)GlcNAc(b1-3)Gal(b1-4)GlcNAc(b1-3)Gal(b1-4)GlcNAc(b1-2)Man(a1-6)]Man(b1-4)GlcNAc(b1-4)GlcNAc
# In short: as §1
# [15] = biological target: Gal(b1-4)GlcNAc(b1-3)Gal(b1-4)GlcNAc(b1-3)Gal(b1-4)GlcNAc(b1-3)Gal(b1-4)GlcNAc(b1-3)Gal(b1-4)GlcNAc(b1-2)Man(a1-3)[Gal(b1-4)GlcNAc(b1-3)Gal(b1-4)GlcNAc(b1-3)Gal(b1-4)GlcNAc(b1-3)Gal(b1-4)GlcNAc(b1-3)Gal(b1-4)GlcNAc(b1-2)Man(a1-6)]Man(b1-4)GlcNAc(b1-4)[Fuc(a1-6)]GlcNAc
# In short: as §1
# [16] = biological target: Gal(b1-4)GlcNAc(b1-3)Gal(b1-4)GlcNAc(b1-3)Gal(b1-4)GlcNAc(b1-3)Gal(b1-4)GlcNAc(b1-3)Gal(b1-4)GlcNAc(b1-2)[Gal(b1-4)GlcNAc(b1-3)Gal(b1-4)GlcNAc(b1-3)Gal(b1-4)GlcNAc(b1-3)Gal(b1-4)GlcNAc(b1-3)Gal(b1-4)GlcNAc(b1-6)]Man(a1-6)[Gal(b1-4)GlcNAc(b1-3)Gal(b1-4)GlcNAc(b1-3)Gal(b1-4)GlcNAc(b1-3)Gal(b1-4)GlcNAc(b1-3)Gal(b1-4)GlcNAc(b1-2)Man(a1-3)]Man(b1-4)GlcNAc(b1-4)[Fuc(a1-6)]GlcNAc
# In short: as §1
# [17] = biological target: Gal(b1-4)GlcNAc(b1-3)Gal(b1-4)GlcNAc(b1-3)Gal(b1-4)GlcNAc(b1-3)Gal(b1-4)GlcNAc(b1-3)Gal(b1-4)GlcNAc(b1-3)Gal(b1-4)GlcNAc(b1-2)Man(a1-3)[Gal(b1-4)GlcNAc(b1-3)Gal(b1-4)GlcNAc(b1-3)Gal(b1-4)GlcNAc(b1-3)Gal(b1-4)GlcNAc(b1-3)Gal(b1-4)GlcNAc(b1-3)Gal(b1-4)GlcNAc(b1-2)Man(a1-6)]Man(b1-4)GlcNAc(b1-4)GlcNAc
# In short: as §1
# [18] = biological target: Gal(b1-4)GlcNAc(b1-3)Gal(b1-4)GlcNAc(b1-3)GalNAc
# In short: as §1
# [19] = biological target: Gal(b1-4)GlcNAc(b1-3)Gal(b1-4)GlcNAc(b1-3)[Gal(b1-4)GlcNAc(b1-3)Gal(b1-4)GlcNAc(b1-6)]GalNAc
# In short: as §1
binder,measurement,setting,value
B1,glycan array binding signal (z-score),[1],-0.274
same,glycan array binding signal (z-score),[2],-0.356
same,glycan array binding signal (z-score),[3],0.241
same,glycan array binding signal (z-score),[4],-0.476
same,glycan array binding signal (z-score),[5],0.131
same,glycan array binding signal (z-score),[6],1.19
same,glycan array binding signal (z-score),[7],0.432
same,glycan array binding signal (z-score),[8],0.782
same,glycan array binding signal (z-score),[9],-0.075
same,glycan array binding signal (z-score),[10],0.013
same,glycan array binding signal (z-score),[11],1.37
same,glycan array binding signal (z-score),[12],-0.293
same,glycan array binding signal (z-score),[13],0.144
same,glycan array binding signal (z-score),[14],0.003
same,glycan array binding signal (z-score),[15],1.07
same,glycan array binding signal (z-score),[16],0.513
same,glycan array binding signal (z-score),[17],-0.084
same,glycan array binding signal (z-score),[18],-0.065
same,glycan array binding signal (z-score),[19],-0.047
